Results reported in PubChem BioAssay AID1347073 (National Center for Advancing Translational Sciences (NCATS), 2019).
Screen size: about 45,000 compounds; about 200 (0.44%) were called active. About 7% were inconclusive and are not listed. The call rests on the fitted dose curve; in most records, active means well fitted activation curve with a large enough effect; inconclusive means small, poorly fitted or top-dose-only effect; inactive means no such curve, though single readings can be large or run the other way. The list shows a part of the results.

experiment: qHTS of TDP-43 Inhibitors: NCGC Sytravon Library Screen; settings: yeast TDP-43 toxicity rescue, BacTiter-Glo growth, 24 h; series mostly up to 46.1 µM; growth rescue (activation): at the top concentration; further: nearly all actives have a fitted effect of over 55% in size; on growth rescue (activation): 0% is about no effect
How it was run: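 TDP-43-expressing yeast, pregrown in raffinose, seeded at OD600 0.02 in galactose medium with compound for 24 hr at 30 deg C. Growth read by BacTiter-Glo luminescence, so rescue of toxicity appears as activation.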
Potency means the concentration at half of the fitted maximal effect.

Row | SMILES | growth rescue (activation) | Potency
1 | CC1CC(=O)N(c2ccc(NCc3ccccc3Cl)c([N+](=O)[O-])c2)C1=O (stereo not drawn) | inactive: 20.2% | 
2 | CCCC(=O)Nc1ccc(Nc2ccccc2)cc1 | inactive: 6.76% | 
3 | O=C(CSc1nnc2ncccn12)Nc1cccc2ccccc12 | inactive: -9.11% | 
4 | COCCNC(=O)CN(C(=O)Cn1nnc2ccccc21)c1cc(C)cc(C)c1 | inactive: -1.27% | 
5 | Cc1ccc(C(=O)N/C(=C/c2ccc(Cl)cc2)C(=O)N2CCOCC2)cc1 | inactive: 12.5% | 
6 | O=C(O)CCn1c(=O)n(CCC(=O)O)c(=O)n(CCC(=O)O)c1=O | inactive: -10.1% | 
7 | COc1ccccc1OCC(=O)Nc1ccc2c(c1)OCCO2 | inactive: 29.8% | 
8 | CC1CC2=C(NC(=S)NC2c2ccccc2F)/C(=C/c2ccccc2F)C1 (stereo not drawn) | inactive: 16% | 
9 | CCOc1cc(/C=N/n2c(C)nc3sc(C)c(C)c3c2=O)ccc1O | inactive: -1.65% | 
10 | COc1ccc2oc(N)c(C=O)c(=O)c2c1 | inactive: -20.7% | 
11 | O=C(CSc1ccc(F)cc1)Nc1cccc(S(=O)(=O)N2CCOCC2)c1 | inactive: -0.66% | 
12 | O=C(NCCOc1ccc(F)cc1)C1CCN(S(=O)(=O)c2ccccc2)CC1 | inactive: 10.1% | 
13 | CCN(CC)S(=O)(=O)c1ccc(N2CCOCC2)c(NC(=O)CC23CC4CC(CC(Br)(C4)C2)C3)c1 | inactive: 21.7% | 
14 | CCC(=O)Nc1nonc1-c1nc2ccccc2n1CC(C)C | inactive: 20.9% | 
15 | COC(=O)c1ccc(NC(=S)Nc2ccc(O)cc2)cc1 | inactive: 7.15% | 
16 | O=C(CNCc1ccc(Cl)cc1)Nc1ccc(C(=O)N2CCCCC2)cc1 | inactive: -4.07% | 
17 | Cc1[nH]n(-c2ccccc2)c(=O)c1N=Nc1cccc([N+](=O)[O-])c1 | inactive: -5.92% | 
18 | COC(=O)c1ccc(Cn2cc(C(F)(F)F)cc([N+](=O)[O-])c2=O)cc1 | inactive: 14.3% | 
19 | CCCCC(C(=O)NC1CCCC1)N(Cc1ccccc1)C(=O)c1snc(C(N)=O)c1N (stereo not drawn) | inactive: -5.24% | 
20 | Cc1ccccc1OCC(=O)NCCCNC(=O)c1cccnc1 | inactive: 7.86% | 
21 | COC(=O)COc1ccc(-c2ccccc2)cc1C=O | inactive: -55.5% | 
22 | Cc1ccc(SCC(=O)Nc2ccc(S(=O)(=O)Nc3ncccn3)cc2)cc1 | inactive: -2.95% | 
23 | Cc1cc(C(=O)Nc2nnc(C(F)(F)F)s2)cs1 | inactive: 5.1% | 

Row | SMILES | growth rescue (activation) | Potency
24 | C=CCn1c(=O)c2ccccc2n2c(SCC(=O)N(C)C)nnc12 | inactive: -3.29% | 
25 | Cc1ccc(S(=O)(=O)N2CCOCC2)cc1C(=O)N1CCCC1 | inactive: -23.7% | 
26 | O=C(NCc1ccco1)/C(=C\c1cccs1)NC(=O)c1ccco1 | inactive: -4.69% | 
27 | CCOC(=O)CC1C(=O)NCCN1S(=O)(=O)c1ccccc1 (stereo not drawn) | inactive: -4.01% | 
28 | CN(C)CCOC(=O)NC12CC3CC(CC(C3)C1)C2 | inactive: 1.91% | 
29 | COC(=O)c1cc(NC(=O)COC(=O)CN2C(=O)C3CC=CCC3C2=O)cc(C(=O)OC)c1 (stereo not drawn) | inactive: 6.04% | 
30 | O=C(O)c1ccccc1OC(C(=O)Nc1cc(Cl)cc(Cl)c1)c1ccccc1 (stereo not drawn) | inactive: -3.72% | 
31 | O=C(O)CCCNc1n[nH]c(=O)[nH]c1=O | inactive: -1.09% | 
32 | CSc1ccccc1NC(=O)Cn1ccsc1=N | inactive: 8.56% | 
33 | Cc1cccc(/C=N/n2c(-c3ccccc3)n[nH]c2=S)c1O | inactive: 7.03% | 
34 | CSC1=C(C#N)C(c2sccc2C)CC(=O)N1 (stereo not drawn) | inactive: 1.78% | 
35 | Cc1cccc(N(C(=O)c2snc(C(N)=O)c2N)C(C(=O)NCc2ccccc2)c2ccncc2)c1 (stereo not drawn) | inactive: 15.6% | 
36 | COc1ccccc1C1C(C(N)=O)=C(C)Nc2nc(CCCO)nn21 (stereo not drawn) | inactive: -7.28% | 
37 | CCOC(=O)C(Cc1ccc(NC(=O)/C(=C\c2ccccc2)NC(=O)c2ccccc2)cc1)N1C(=O)c2ccccc2C1=O (stereo not drawn) | inactive: 12.7% | 
38 | CNc1c(NS(=O)(=O)c2ccc(CC(C)C)cc2)c(=O)oc2ccccc12 | inactive: 10.5% | 
39 | CC1CCC(NC(=O)CSc2nncn2C)CC1 (stereo not drawn) | inactive: 2.42% | 
40 | COc1cccc(N(CC(=O)NCC2CCCO2)C(=O)CNS(=O)(=O)c2ccccc2)c1 (stereo not drawn) | inactive: -19.3% | 
41 | Nc1nnc(SCC(=O)Nc2cccc(S(N)(=O)=O)c2)s1 | inactive: 1.51% | 
42 | Cc1ccc2c(C)c(C(=O)N(C)CCC3CCCCO3)oc2c1C (stereo not drawn) | inactive: 4.76% | 
43 | CC(NC(=O)c1ccc(NS(C)(=O)=O)cc1)c1ccccc1 (stereo not drawn) | inactive: -18.9% | 
44 | CCn1ccc(C(=O)Nc2cccc(Cl)c2)n1 | inactive: 20.1% | 
45 | Cc1ccc(S(=O)(=O)NN2C(=O)/C(=C\c3ccc(Cl)cc3)SC2=S)cc1 | inactive: -14.7% | 
46 | O=C(NC1CCN(C(=O)NCc2ccccc2)CC1)c1ccccc1 | inactive: 3.82% | 

Row | SMILES | growth rescue (activation) | Potency
47 | Cc1cc(C)cc(-n2cc(C(=O)O)c(=O)cc2C)c1 | inactive: 2.8% | 
48 | Cc1cc(S(=O)(=O)N2CCOCC2)ccc1OCC(=O)N1CCC(C(N)=O)CC1 | inactive: 8.24% | 
49 | Cc1ccc(C)c(C(O)c2ncc(-c3ccccc3F)[nH]2)c1 (stereo not drawn) | inactive: 0.347% | 
50 | COc1ccc(CN(C)Cc2nc3scc(-c4ccccc4)c3c(=O)[nH]2)cc1OC | inactive: 13.4% | 
51 | O=c1c2cn(Cc3ccc(F)cc3)c3ccccc3c-2nn1Cc1ccc(F)cc1 | inactive: -8.17% | 
52 | Cc1nc(C)n(CC(C)C(=O)N2CCN(S(=O)(=O)c3ccccc3)CC2)n1 (stereo not drawn) | inactive: -0.316% | 
53 | CN(CC(=O)Nc1ccc(S(N)(=O)=O)cc1)C1CCCCC1 | inactive: -16.2% | 
54 | CCN1CCN(C(=O)C(C)Nc2ccc(OC)cc2OC)CC1 (stereo not drawn) | inactive: 4.24% | 
55 | COc1ccc(C)cc1NC(=O)C1CCN(C(=O)c2ccc(C(C)(C)C)cc2)CC1 | inactive: 8.29% | 
56 | CC(C)(C)NC(=O)NC(=O)CN1CCN(c2cccc(Cl)c2)CC1 | inactive: 5.19% | 
57 | N#C/C(=C/c1ccc(N2CCOCC2)o1)c1ccc(Br)cc1 |  | active: 14.1 µM
58 | CC1CN(S(=O)(=O)c2cc(C(=O)NCCCN3CCCC3=O)ccc2Cl)CC(C)O1 (stereo not drawn) | inactive: 7.18% | 
59 | CCC(=O)Nc1cccc(-c2csc(-c3ccccc3)n2)c1 | inactive: 11.2% | 
60 | Cc1ccc(S(=O)(=O)/N=C2\C=C(Nc3cccc(C(=O)O)c3)C(=O)c3ccccc32)c(C)c1 | inactive: -11.7% | 
61 | COc1ccccc1NC(=O)C1=C(C)Nc2ncnn2C1c1ccc(C)o1 (stereo not drawn) | inactive: 17.7% | 
62 | Cc1ccc(C(=O)CNc2ccccc2)cc1 | inactive: 12.3% | 
63 | O=C1c2ccccc2NC(c2ccccc2O)N1NS(=O)(=O)c1ccccc1 (stereo not drawn) | inactive: 1.53% | 
64 | COc1ccc2cc(-c3cc(C(=O)OCC(=O)Nc4c(C)n(C)n(-c5ccccc5)c4=O)c4ccccc4n3)ccc2c1 | inactive: 24% | 
65 | C/C(=N\NC(=O)CNC(=O)C(c1ccccc1)c1ccccc1)c1ccccc1 | inactive: 13.6% | 
66 | O=C(CCOc1ccccc1)Nc1ccc([N+](=O)[O-])cc1 | inactive: 3.68% | 
67 | COc1cc(/C=C2/SC(=S)N(Cc3ccccc3)C2=O)ccc1OCC(=O)O | inactive: 5.27% | 
68 | COc1ccc(C2C3=C(CCCC3=O)Nc3n[nH]c(C)c32)cc1OC (stereo not drawn) | inactive: 3.21% | 
